From article PMC9911399, “Two distinct binding modes provide the RNA-binding protein RbFox with extraordinary sequence specificity”
Where a chain is given by its changes, count along the chain named. The list shows a part of the results.

T1: RBFOX1 RRM RbFoxmut (Fox-RRM*) (Homo sapiens, UniProt Q9NWB1 109-208, R118D;E147R;N151S;E152T)
T1 sequence: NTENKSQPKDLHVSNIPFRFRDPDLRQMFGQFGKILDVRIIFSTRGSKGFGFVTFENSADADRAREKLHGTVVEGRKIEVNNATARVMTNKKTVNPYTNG

B1: AUAGCCG (DNA:RNA)
RNA: GGGAGACCGGAAUUCAGAUUGUCCAUAGCCGUUAAAUCCCGUCGUAGCCACCA
DNA 1: CAATCTGAATTCCGGTCTCCC
DNA 2: TGGTGGCTACGACGGGATT
B2: AACACGU (DNA:RNA)
RNA: B1 RNA with U26A, A27C, G28A, C30G, G31U
DNA 1: CAATCTGAATTCCGGTCTCCC
DNA 2: TGGTGGCTACGACGGGATT
B3: GGUGUUC (DNA:RNA)
RNA: B1 RNA with A25G, U26G, A27U, C29U, C30U, G31C
DNA 1: CAATCTGAATTCCGGTCTCCC
DNA 2: TGGTGGCTACGACGGGATT
B4: UCCAACG (DNA:RNA)
RNA: B1 RNA with A25U, U26C, A27C, G28A, C29A
DNA 1: CAATCTGAATTCCGGTCTCCC
DNA 2: TGGTGGCTACGACGGGATT
B5: AAGGCCA (DNA:RNA)
RNA: B1 RNA with U26A, A27G, G31A
DNA 1: CAATCTGAATTCCGGTCTCCC
DNA 2: TGGTGGCTACGACGGGATT
B6: CGUACUG (DNA:RNA)
RNA: B1 RNA with A25C, U26G, A27U, G28A, C30U
DNA 1: CAATCTGAATTCCGGTCTCCC
DNA 2: TGGTGGCTACGACGGGATT
B7: GUGCGGU (DNA:RNA)
RNA: B1 RNA with A25G, A27G, G28C, C29G, C30G, G31U
DNA 1: CAATCTGAATTCCGGTCTCCC
DNA 2: TGGTGGCTACGACGGGATT
B8: AUAAACU (DNA:RNA)
RNA: B1 RNA with G28A, C29A, G31U
DNA 1: CAATCTGAATTCCGGTCTCCC
DNA 2: TGGTGGCTACGACGGGATT
B9: AGUAUAU (DNA:RNA)
RNA: B1 RNA with U26G, A27U, G28A, C29U, C30A, G31U
DNA 1: CAATCTGAATTCCGGTCTCCC
DNA 2: TGGTGGCTACGACGGGATT
B10: GUCAACC (DNA:RNA)
RNA: B1 RNA with A25G, A27C, G28A, C29A, G31C
DNA 1: CAATCTGAATTCCGGTCTCCC
DNA 2: TGGTGGCTACGACGGGATT
B11: AGGCAAU (DNA:RNA)
RNA: B1 RNA with U26G, A27G, G28C, C29A, C30A, G31U
DNA 1: CAATCTGAATTCCGGTCTCCC
DNA 2: TGGTGGCTACGACGGGATT
B12: GUGGAUG (DNA:RNA)
RNA: B1 RNA with A25G, A27G, C29A, C30U
DNA 1: CAATCTGAATTCCGGTCTCCC
DNA 2: TGGTGGCTACGACGGGATT
B13: GCAGGAA (DNA:RNA)
RNA: B1 RNA with A25G, U26C, C29G, C30A, G31A
DNA 1: CAATCTGAATTCCGGTCTCCC
DNA 2: TGGTGGCTACGACGGGATT
B14: AAUACCU (DNA:RNA)
RNA: B1 RNA with U26A, A27U, G28A, G31U
DNA 1: CAATCTGAATTCCGGTCTCCC
DNA 2: TGGTGGCTACGACGGGATT
B15: AGUAAUU (DNA:RNA)
RNA: B1 RNA with U26G, A27U, G28A, C29A, C30U, G31U
DNA 1: CAATCTGAATTCCGGTCTCCC
DNA 2: TGGTGGCTACGACGGGATT
B16: AGCUAGA (DNA:RNA)
RNA: B1 RNA with U26G, A27C, G28U, C29A, C30G, G31A
DNA 1: CAATCTGAATTCCGGTCTCCC
DNA 2: TGGTGGCTACGACGGGATT
B17: AUUAACG (DNA:RNA)
RNA: B1 RNA with A27U, G28A, C29A
DNA 1: CAATCTGAATTCCGGTCTCCC
DNA 2: TGGTGGCTACGACGGGATT
B18: AUCCCGC (DNA:RNA)
RNA: B1 RNA with A27C, G28C, C30G, G31C
DNA 1: CAATCTGAATTCCGGTCTCCC
DNA 2: TGGTGGCTACGACGGGATT
B19: CUACCCA (DNA:RNA)
RNA: B1 RNA with A25C, G28C, G31A
DNA 1: CAATCTGAATTCCGGTCTCCC
DNA 2: TGGTGGCTACGACGGGATT
B20: UCGGGCC (DNA:RNA)
RNA: B1 RNA with A25U, U26C, A27G, C29G, G31C
DNA 1: CAATCTGAATTCCGGTCTCCC
DNA 2: TGGTGGCTACGACGGGATT

target: T1, RBFOX1 RRM RbFoxmut (Fox-RRM*); test: EMSA; HiTS-Eq, 1 nM pool, 10 min; buffer printed only for the single-RNA assays: 10 mM Tris pH 7.5, 150 mM NaCl, 3.4 mM EDTA, 0.001% NP-40, 30 C; details: tags: His6 N-terminal (pET28a); label: 5' 32P
Procedure, shortened: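 Relative association constants, normalised to the cognate motif, were derived by comparing read counts of each RNA species with those of the control reaction. The RNA sequenced was the free fraction, separated by 8% native PAGE after a 10 min equilibration in 50 µL of 1 nM 5′-radiolabelled RNA (7 randomized nucleotides) with increasing concentrations of purified wild-type or mutant RbFox RRM.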

Row | Binder | binding signal
1 | B1 | 0.119 KA relative to UGCAUGU
2 | B2 | 0.0766 KA relative to UGCAUGU
3 | B3 | 0.0995 KA relative to UGCAUGU
4 | B4 | 0.121 KA relative to UGCAUGU
5 | B5 | 0.0987 KA relative to UGCAUGU
6 | B6 | 0.0903 KA relative to UGCAUGU
7 | B7 | 0.146 KA relative to UGCAUGU
8 | B8 | 0.0949 KA relative to UGCAUGU
9 | B9 | 0.141 KA relative to UGCAUGU
10 | B10 | 0.06 KA relative to UGCAUGU
11 | B11 | 0.0548 KA relative to UGCAUGU
12 | B12 | 1.04 KA relative to UGCAUGU
13 | B13 | 0.113 KA relative to UGCAUGU
14 | B14 | 0.0691 KA relative to UGCAUGU
15 | B15 | 0.08 KA relative to UGCAUGU
16 | B16 | 0.118 KA relative to UGCAUGU
17 | B17 | 0.134 KA relative to UGCAUGU
18 | B18 | 0.078 KA relative to UGCAUGU
19 | B19 | 0.0706 KA relative to UGCAUGU
20 | B20 | 0.147 KA relative to UGCAUGU
